“And” between values parts separate entries of the source, which are not always exact repeats. Equal values may be shown once. The whole screen tested about 350,000 compounds, of which about 31,000 (8.9%) were called active. Inconclusive means that the source gave no clear call. Such entries were picked first, then a sample of the others. Calls come from the whole dose curve; as a rule, active = well fitted inhibition curve with a large enough effect; inconclusive = small, poorly fitted or top-dose-only effect; inactive = no such curve, though single readings can be large or run the other way. A potency beside an inconclusive call is a rough fit, not a confirmed value. More than one record can exist for a structure, and the calls need not agree.
Molecular target: Histone-lysine N-methyltransferase EHMT2 (Homo sapiens) (UniProt Q96KQ7)
Sequence of UniProt Q96KQ7 (Q96KQ7 whole entry, looked up): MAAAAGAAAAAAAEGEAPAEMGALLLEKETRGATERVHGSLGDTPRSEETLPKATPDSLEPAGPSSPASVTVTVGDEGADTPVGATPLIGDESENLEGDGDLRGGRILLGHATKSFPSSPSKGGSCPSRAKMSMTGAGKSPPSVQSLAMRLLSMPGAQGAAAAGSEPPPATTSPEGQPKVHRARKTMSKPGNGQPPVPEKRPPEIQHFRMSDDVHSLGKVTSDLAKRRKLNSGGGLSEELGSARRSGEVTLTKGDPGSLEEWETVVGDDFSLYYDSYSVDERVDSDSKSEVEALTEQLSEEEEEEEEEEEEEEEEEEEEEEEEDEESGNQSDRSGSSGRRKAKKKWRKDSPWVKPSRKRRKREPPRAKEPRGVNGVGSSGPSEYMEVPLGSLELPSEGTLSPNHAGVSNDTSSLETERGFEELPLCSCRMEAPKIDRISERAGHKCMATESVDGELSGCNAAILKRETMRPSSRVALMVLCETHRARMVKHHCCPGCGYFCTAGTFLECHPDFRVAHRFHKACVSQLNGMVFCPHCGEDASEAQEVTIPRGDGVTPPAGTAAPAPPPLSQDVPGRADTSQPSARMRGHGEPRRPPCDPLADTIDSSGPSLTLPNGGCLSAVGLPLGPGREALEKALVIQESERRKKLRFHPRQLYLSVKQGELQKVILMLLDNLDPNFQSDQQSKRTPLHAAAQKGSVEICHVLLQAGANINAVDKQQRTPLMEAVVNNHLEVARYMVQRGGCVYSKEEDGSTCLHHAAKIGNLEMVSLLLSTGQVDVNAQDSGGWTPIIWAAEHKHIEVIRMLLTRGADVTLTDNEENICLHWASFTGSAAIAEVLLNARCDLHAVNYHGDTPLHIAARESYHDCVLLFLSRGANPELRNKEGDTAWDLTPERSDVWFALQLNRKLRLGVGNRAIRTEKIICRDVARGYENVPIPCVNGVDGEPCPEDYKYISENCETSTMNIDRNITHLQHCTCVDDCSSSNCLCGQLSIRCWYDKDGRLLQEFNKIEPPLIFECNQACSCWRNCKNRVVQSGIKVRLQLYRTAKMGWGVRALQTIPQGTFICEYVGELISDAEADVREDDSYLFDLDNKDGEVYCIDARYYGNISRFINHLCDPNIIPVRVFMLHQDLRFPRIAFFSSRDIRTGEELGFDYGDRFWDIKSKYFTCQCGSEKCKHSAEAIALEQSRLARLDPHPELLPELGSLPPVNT
Assay: qHTS Assay for Inhibitors of Histone Lysine Methyltransferase G9a; note: nearly all actives have a fitted effect of over 75% in size
Details: G9a H3K9 monomethylation, AlphaScreen, 2 h; activity, negative = inhibition: at 59 µM (top of the series) unless noted
How it was run: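 Quantitative HTS format: methyltransferase activity on a biotin-tagged H3K9 peptide is measured by AlphaScreen, using a rabbit anti-monomethyl-H3K9 antibody with streptavidin donor and anti-IgG acceptor beads. Final levels are 20 nM enzyme, 500 nM peptide, 20 uM SAM; 2 h RT.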
% is set by controls: 0 for no effect and ±100 for the full control effect; potency is the fitted concentration of half-maximal effect; tags give direction and shape of the fitted curve.

Question: Which Potency does the source give for `CCOP(=O)(OCC)C(Nc1cccc([N+](=O)[O-])c1)c1ccc(OC)cc1` (stereo not given) here?
Answer: inconclusive: 89.1 µM [inhibitor, single point]

Question: Which Potency does the source give for `Cc1[nH]c(=S)c(C#N)c2c1CCCC2` here?
Answer: active: 1.78 µM

Question: With `CC[N+](C)(CC)CCC[n+]1c(-c2ccccc2)c2cc(N)ccc2c2ccc(N)cc21` as the molecule, how does the Potency read?
Answer: active: 5.01 µM

Question: For `CC1C(=O)OC2C1CC[C@@]1(C)C=CC(=O)[C@@]3(C)O[C@@]213` (stereo not given in full), which activity, negative = inhibition is on record?
Answer: inconclusive: -56% [inhibitor] [at 2.33 µM]

Question: For `O=C1NC(=O)C(=C/C=C/c2coc3ccc(Br)cc3c2=O)C(=O)N1`, which Potency is on record?
Answer: active: 8.91 µM

Question: Which Potency does the source give for `Cc1ncsc1CCOC(=O)c1ccc([N+](=O)[O-])cc1` here?
Answer: inconclusive: 31.6 µM [inhibitor, single point]

Question: For `CNCC/C=C/c1cccnc1`, which Potency is on record?
Answer: inconclusive: 15.8 µM [inhibitor, single point]

Question: For `COC(=O)N1CCN(C(=O)Cc2ccc(Cl)c(Cl)c2)C(CN2CCCC2)C1` (stereo not given), which Potency is on record?
Answer: active: 35.5 µM

Question: For `O=C(Cn1cc(C(=O)c2ccccc2)c2ccccc21)Nc1ccc(Br)cc1`, which Potency is on record?
Answer: inactive

Question: Which Potency does the source give for `Cc1cccc(OCC(=O)N2CCN(Cc3ccc([N+](=O)[O-])cc3)CC2)c1` here?
Answer: inactive

Question: With `N=C1c2ccccc2CN1NC(=O)c1ccc(Br)cc1` as the molecule, how does the Potency read?
Answer: inconclusive: 89.1 µM [inhibitor, single point]

Question: How did the Potency turn out when `O=c1[nH]c(=S)n(C2CCCCC2)c(O)c1/C=N/N1CCOCC1` was run?
Answer: inconclusive: 31.6 µM [inhibitor, single point]

Question: For `COc1ccccc1N=c1scc(-c2ccc(S(=O)(=O)N3CCCC3)cc2)n1C`, which Potency is on record?
Answer: active: 10 µM

Question: Which Potency does the source give for `Clc1ccc(OCC#CCN2CCOCC2)cc1` here?
Answer: active: 3.55 µM

Question: For `CCCc1ccc(OCC(=O)Nc2ccc(Cl)cc2C(=O)c2ccccc2)cc1`, which Potency is on record?
Answer: inconclusive: 35.5 µM [inhibitor, single point]

Question: With `CCOP(=O)(OCC)/C(C#N)=C/c1ccc(Br)cc1` as the molecule, how does the activity, negative = inhibition read?
Answer: inactive: -11.4% [at 2.33 µM]

Question: Which Potency does the source give for `O=C(CN1CCN(C(=O)COc2cccc(F)c2)CC1)Nc1ccc(Cl)c(C(F)(F)F)c1` here?
Answer: inconclusive: 7.08 µM [inhibitor, single point]

Question: For `CCOC(=O)C1(c2ccccc2)CCN(CCC(=O)Nc2cccc(Br)c2)CC1`, which activity, negative = inhibition is on record?
Answer: inactive: 1.21% [at 0.501 µM]

Question: With `CCOc1ccc(N2C(=O)CC(Sc3nc(C)cc(C)n3)C2=O)cc1` (stereo not given) as the molecule, how does the Potency read?
Answer: inconclusive: 50.1 µM [inhibitor, single point]

Question: With `Cc1cccc(N2C(=O)NC(=O)/C(=C\C=C\c3ccco3)C2=O)c1` as the molecule, how does the Potency read?
Answer: active: 3.98 µM

Question: `CCC1(C)CC(=O)NC1=O` (stereo not given) was tested. Which activity, negative = inhibition did it give?
Answer: inactive: 28.2% [at 12.7 µM]

Question: Which Potency does the source give for `O=C(O)c1ccccc1N=Nc1c(O)[nH]c(=O)[nH]c1=O` here?
Answer: inconclusive: 50.1 µM [inhibitor, partial curve]

Question: For `COc1ccc(N2CC2c2ccncc2)cc1` (stereo not given), which Potency is on record?
Answer: inconclusive: 79.4 µM [inhibitor, single point]

Question: With `O=C(O)c1ccc[nH]c1=S` as the molecule, how does the Potency read?
Answer: active: 3.55 µM

Question: `c1ccc2c(c1)Nc1ccccc1S2` was tested. Which Potency did it give?
Answer: active: 31.6 µM and active: 12.6 µM

Question: For `CCCCN1C(=O)NC(=O)C2(Cc3c(nc4ccccn4c3=O)N3CCc4ccccc4C32)C1=O` (stereo not given), which Potency is on record?
Answer: inconclusive: 89.1 µM [inhibitor, single point]

Question: Which Potency does the source give for `CCN(CC)c1nc2c(C)cccn2c(=O)c1C=C1C(=O)NC(=O)NC1=O` here?
Answer: inconclusive: 100 µM [inhibitor, single point]

Question: With `O=c1c2ccccc2[se]n1-c1ccccc1` as the molecule, how does the Potency read?
Answer: active: 501 nM and active: 70.8 nM and active: 1.41 µM

Question: For `c1ccc(CCNCc2ccccc2)cc1`, which Potency is on record?
Answer: inactive

Question: How did the Potency turn out when `CCc1nnc(NS(=O)(=O)c2ccc(N=Cc3c(O)n(-c4ccc(Cl)cc4)c(=O)[nH]c3=O)cc2)s1` was run?
Answer: inconclusive: 89.1 µM [inhibitor, single point]

Question: For `COc1ccc(CCNCc2cccc(C(F)(F)F)c2)cc1OC`, which Potency is on record?
Answer: active: 11.2 µM

Question: For `CN(C)S(=O)(=O)c1cc(NC(=O)COC(=O)Cc2ccccc2)ccc1Cl`, which Potency is on record?
Answer: inactive

Question: For `CCCN(CCC)C1Cc2cc(OC)c(OC)cc2C1`, which Potency is on record?
Answer: inactive

Question: With `COc1cc(OC)cc(C(=O)N2CCC(N3CCN(c4ccccc4)CC3)CC2)c1` as the molecule, how does the Potency read?
Answer: active: 2.82 µM

Question: Which Potency does the source give for `COc1ccc(CCNCc2ccncc2)cc1OC` here?
Answer: active: 2.51 µM

Question: With `C[n+]1c(-c2ccccc2)c2cc(N)ccc2c2ccc(N)cc21` as the molecule, how does the Potency read?
Answer: inconclusive: 3.16 µM [inhibitor, single point]

Question: For `CCN(CC)CCNCc1nc2ccccc2c(=O)n1-c1ccc(F)cc1`, which Potency is on record?
Answer: inconclusive: 39.8 µM [inhibitor, single point]

Question: How did the Potency turn out when `O=C(CNC1CCCCC1)N1CCC2(CC1)OCCO2` was run?
Answer: active: 35.5 µM

Question: `CSc1ccc(CN2CCN(c3ccccc3C)CC2)cc1` was tested. Which Potency did it give?
Answer: active: 12.6 µM

Question: How did the Potency turn out when `S=c1[nH]nc(-c2ccccc2)n1CC1CCCO1` (stereo not given) was run?
Answer: inconclusive: 6.31 µM [inhibitor, full curve, poor fit]

Question: How did the activity, negative = inhibition turn out when `C=C1C(O)(c2ccccc2)C2CC[N+]1(C)CC2` (stereo not given) was run?
Answer: inconclusive: -102% [inhibitor]

Question: For `Cc1ccc2c(c1)CC1(CN2C)C(=O)NC(=O)N(CCc2ccccc2)C1=O` (stereo not given), which Potency is on record?
Answer: active: 7.94 µM

Question: Which Potency does the source give for `Cc1ccc(Cl)cc1N1CCN(C(=O)c2cn(CC(C)C)c(=O)c3c2c2ccccc2n3C)CC1` here?
Answer: inconclusive: 1.58 µM [inhibitor, partial curve, poor fit]

Question: For `CC(Cc1ccccc1)NC(=O)C(c1ccc(N)cc1)c1ccc(N)cc1` (stereo not given), which Potency is on record?
Answer: inconclusive: 31.6 µM [inhibitor, single point]

Question: With `CNC1[C@@H](O)C(OC2C(N)C[C@H](N)[C@@H](O[C@@H]3OC(C(C)O)C(O)C(O)C3N)C2O)OC[C@]1(C)O` (stereo not given in full) as the molecule, how does the activity, negative = inhibition read?
Answer: inconclusive: -51.4% [inhibitor] [at 2.33 µM]

Question: With `O=c1[nH]c(=O)n(C2CCCCCC2)c(O)c1C=NC1CCN(Cc2ccccc2)CC1` as the molecule, how does the Potency read?
Answer: inconclusive: 89.1 µM [inhibitor, single point]

Question: `O=C(CCN1CCOCC1)Nc1ccc(Br)cc1C(=O)c1ccccc1` was tested. Which Potency did it give?
Answer: active: 35.5 µM

Question: Which Potency does the source give for `O=C(c1cc(-c2ccccc2)on1)N1CCC2(CC1)OCCO2` here?
Answer: inactive

Question: With `O=C(O)CP(=O)(O)c1ccc(Cl)cc1` as the molecule, how does the Potency read?
Answer: active: 50.1 µM

Question: How did the Potency turn out when `Cc1ccc(N2C(=O)NC(=O)/C(=C\c3ccc([N+](=O)[O-])o3)C2=O)cc1` was run?
Answer: active: 6.31 µM

Question: `CS/C(N)=C(C#N)/C(C#N)=C(\N)SC` was tested. Which Potency did it give?
Answer: inconclusive: 5.62 µM [inhibitor, single point]

Question: For `CCN1CCN(C(=O)COc2ccc(S(=O)(=O)Nc3ccc(Cl)cc3)cc2)CC1`, which Potency is on record?
Answer: inactive

Question: How did the Potency turn out when `COc1ccc(-c2noc(CN3C(=O)c4ccccc4C3=O)n2)cc1` was run?
Answer: inconclusive: 1.41 µM [inhibitor, single point]

Question: Which Potency does the source give for `COc1ccc(OCC(=O)N2CCN(CCc3ccccn3)CC2)cc1` here?
Answer: inactive

Question: `Oc1c(Br)c(Br)c(Br)c(Br)c1Br` was tested. Which activity, negative = inhibition did it give?
Answer: inactive: 5% [at 0.501 µM]

Question: With `CCOc1cc(C)cc2oc(=O)c3c(c12)CCCC3` as the molecule, how does the activity, negative = inhibition read?
Answer: inactive: 5.11% [at 2.33 µM]

Question: With `CC(CNC(=O)c1cccnc1)NC(=O)c1cccnc1` (stereo not given) as the molecule, how does the Potency read?
Answer: inconclusive: 2.82 µM [inhibitor, partial curve, poor fit]

Question: Which Potency does the source give for `COc1ccccc1N1CCN(C(=O)c2cc3c(-c4ccccc4F)nn(C)c3s2)CC1` here?
Answer: inconclusive: 31.6 µM [inhibitor, single point]

Question: `O=C1OCc2cc(N=Nc3c(O)[nH]c(=O)[nH]c3=O)ccc21` was tested. Which Potency did it give?
Answer: inconclusive: 89.1 µM [inhibitor, partial curve, poor fit]

Question: With `FC(F)(F)Oc1ccc(C2NCc3ccccc3-n3cccc32)cc1` (stereo not given) as the molecule, how does the Potency read?
Answer: inconclusive: 50.1 µM [inhibitor, partial curve, poor fit]

Question: For `Cc1ccc(N2C(=O)NC(=O)/C(=C\C=C\c3ccco3)C2=O)cc1`, which Potency is on record?
Answer: active: 35.5 µM

Question: `CCC1(CCc2ccncc2)C(=O)NC(=O)NC1=O` was tested. Which Potency did it give?
Answer: inconclusive: 1.26 µM [inhibitor, single point]

Question: How did the Potency turn out when `O=c1[nH]c(O)c(C=Nc2ccccc2[N+](=O)[O-])c(=O)[nH]1` was run?
Answer: active: 70.8 µM

Question: For `CCOc1ccccc1N1C(=O)CC(=O)NC1=O`, which Potency is on record?
Answer: active: 79.4 µM

Question: `Cc1cccc(NC(=O)CSc2nnc([C@@H](N)Cc3c[nH]c4ccccc34)o2)c1C` was tested. Which Potency did it give?
Answer: inconclusive: 20 µM [inhibitor, partial curve, poor fit]

Question: How did the Potency turn out when `COc1cccc(OC)c1C(=O)NC(=S)N1C[C@H]2C[C@H](C1)c1cccc(=O)n1C2` was run?
Answer: inconclusive: 56.2 µM [inhibitor, partial curve, poor fit]

Question: `S=C=Nc1cccc(C2(N3CCCCC3)CCCCC2)c1` was tested. Which Potency did it give?
Answer: active: 14.1 µM

Question: `COCCNC(=O)c1ccc(N2CC3CC(C2)c2cccc(=O)n2C3)c([N+](=O)[O-])c1` (stereo not given) was tested. Which Potency did it give?
Answer: inconclusive: 89.1 µM [inhibitor, single point]

Question: How did the activity, negative = inhibition turn out when `CCCCCCn1c(O)c(C=NCCN2CCCCC2)c(=O)[nH]c1=O` was run?
Answer: inactive: 18.6% [at 12.7 µM]

Question: For `CC[C@]1(O)CC[C@H]2[C@@H]3CCC4=CCCC[C@@H]4[C@H]3CC[C@@]21C`, which Potency is on record?
Answer: inconclusive: 2 µM [inhibitor, partial curve, poor fit]

Question: How did the Potency turn out when `CCc1ccc(-n2nc(C)c3c2NC(=O)CSC3c2ccc(OC)cc2OC)cc1` (stereo not given) was run?
Answer: inactive

Question: For `Cn1c(O)c(C=NCCN2CCOCC2)c(=O)n(C)c1=S`, which Potency is on record?
Answer: active: 31.6 µM

Question: With `CCC(C)N1CCN(C(=O)COc2ccc3ccccc3c2)CC1` (stereo not given) as the molecule, how does the Potency read?
Answer: active: 1.78 µM

Question: Which Potency does the source give for `CCN(c1ccc(C(O)(C(=O)OC)C(F)(F)F)cc1)S(=O)(=O)c1ccccc1` (stereo not given) here?
Answer: inactive

Question: `CCOP(=O)(Cc1cc(C#N)oc1C)OCC` was tested. Which Potency did it give?
Answer: inconclusive: 89.1 µM [inhibitor, single point]

— PubChem BioAssay AID504332 (National Center for Advancing Translational Sciences (NCATS), 2011)
